Laboratory results: patent US20080220004A1 (published 2008)

Molecular target: T1, human VEGF165 (human, UniProt P15692-4 27-191)
T1 sequence (looked up): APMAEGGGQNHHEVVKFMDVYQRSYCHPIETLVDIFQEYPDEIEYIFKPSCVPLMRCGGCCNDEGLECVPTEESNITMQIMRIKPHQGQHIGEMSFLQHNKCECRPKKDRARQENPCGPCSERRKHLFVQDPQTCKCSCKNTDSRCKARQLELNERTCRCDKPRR
Assay: ELISA of mouse sera on VEGF165-coated plates (pharmacokinetic detection)

B1: Flt1D2.VEGFR3D3.FcΔC1(a) (Fc fusion)
chain: GRPFVEMYSEIPEIIHMTEGRELVIPCRVTSPNITVTLKKFPLDTLIPDGKRIIWDSRKGFIISNATYKEIGLLTCEATVNGHLYKTNYLTHRQTNTIIDIQLLPRKSLELLVGEKLVLNCTVWAEFNSGVTFDWDYPGKQAERGKWVPERRSQQTHTELSSILTIHNVSQHDLGSYVCKANNGIQRFRESTEVIVHENGPG[omitted - human IgG1 Fc]
notes: no signal peptide limits are stated; It was purified by the same methods as Flt1D2.Flk1D3.FcΔC1(a), whose dimer fraction was pooled; also called R1R3
- binding result: binds
